Measured values: PubChem BioAssay AID1457 (National Center for Advancing Translational Sciences (NCATS), 2008)
The campaign covered roughly 210,000 compounds. About 730 (0.35%) were called active. The inconclusive results got no clear call from the source; some entries with a clear call stand among them for comparison. Calls come from the whole dose curve; as a rule, active = well fitted inhibition curve with a large enough effect; inconclusive = small, poorly fitted or top-dose-only effect; inactive = no such curve, though single readings can be large or run the other way. Where the call is inconclusive, the potency comes from a doubtful curve fit.
Potency is the fitted concentration of half-maximal effect.

Assay: qHTS Assay for Identifying the Cell-Membrane Permeable IMPase Inhibitors: Potentiation with Lithium; note: nearly all actives have a fitted effect of over 50% in size;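 for activity, negative = IMPase inhibition: plate controls were basal vehicle for no effect and high inhibitor control for full effect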
Details: CHO-M1 cells, IP1 TR-FRET (IP-One), carbachol + lithium; series mostly up to 59.4 µM; activity, negative = IMPase inhibition: at the top concentration
Text: NIH Chemical Genomics Center [NCGC]
NIH Molecular Libraries Probe Production centers Network [MLPCN]
Assay Submitter (PI): Wei Zheng
Lithium has been widely used for the treatment of bipolar disorder. But lithium has a narrow therapeutic index and it can cause side effects such as thirst, weight gain, tremor, polyuria and memory problems. Although the mechanism for lithium action in treatment of bipolar disorder is still not fully understood, inhibition of inositol monophosphatase (IMPase) and the subsequent depletion of the inositol pool in living cells have been implicated as the primary therapeutic benefit of lithium therapy. Therefore, a selective IMPase inhibitor with reduced side effects might be a good drug candidate to replace lithium for the treatment of bipolar disorder. Several IMPase inhibitors have been discovered previously. However, they are not suitable for therapeutic use because of their poor cell membrane penetrability or oral bioavailability; the development of new cell-permeable IMPase inhibitors is needed.
IMPase catalyzes the hydrolysis of inositol-1-phosphate (IP1) to release free inositol. Binding of an agonist to a Gq coupled GPCR results in the activation of PLC, which hydrolyzes the PIP2 to form inositol-1,4,5-trisphosphate (IP3) and diacyl glycerol (DAG). While DAG activates protein kinase C (PKC), IP3 triggers the elevation of intracellular free Ca2+. The IP3 is very rapidly inactivated by hydrolysis to IP2, IP1 and then inositol by a series of enzymes including IMPase. Free inositols are used for synthesis of PI and thus start another inositol cycle.
To identify new cell-permeable IMPase inhibitors, we developed a cell-based IMPase assay in which the cytosolic IP1 is measured by a time-resolved fluorescence resonance energy transfer (TR-FRET) assay. In this assay, an IP1 specific antibody is used to detect the labeled IP1 tracer. When the cell lysate contains the elevated IP1 due to the inhibition of IMPase, the TR-FRET between the labeled antibody and IP1 tracer is disrupted resulting in a reduction in the total signal. Since the TR-FRET is used, this cell-based assay is a homogenous assay without cell wash and medium change that is suitable for assay miniaturization and HTS. In this particular assay, a small amount of lithium is added to potentiate the response of weak activators.
NCGC Assay Protocol Summary:
A Chinese hamster ovary (CHO) cell line stably expressing the M1 receptor (CHO-M1) was obtained from ATCC and maintained in F-12 Kaighn's media (Invitrogen, Carlsbad, CA) supplemented with 10 % FBS, 100 units/ml penicillin, 100 ug/ml streptomycin and 250 ug/ml geneticin at 37C, 5% CO2 in a humidified atmosphere. Before the assay, aliquots of cells were frozen and stored at -135C. The assay was performed in 1536-well format. Data are reported for both the ratio of the two emission wavelengths, and also for the component 'donor' channel, Em2=620. […] AC50 values were determined from concentration-response data modeled with the standard Hill equation.
(1) Frozen CHO-M1 cells were thaw, washed once with fresh media and resuspended in F12K media containing 10% FBS, 100 units/ml penicillin and 100 ug/ml streptomycin. Cells were plated at 4ul/well (2000 cells) in white, tissue culture treated 1536-well plates, and then cultured at 37C, 5 % CO2 for 16 to 30 hours.
(2) Add 23 nl/well of compound in DMSO solution. The final titration for each compound was between 0.6 nM and 46 uM.
(4) Incubation at 37C, 5 % CO2 for 30 min.
(5) Add 1 ul/well of d2-conjugated IP1 (d2-IP1) and 1 ul/well of Eu+ cryptate conjugated anti-IP1 antibody (Eu+-Ab) prepared in the cell lysis buffer, both from the IP-One kit (Cisbio, MA).
(6) Incubate at room temperature for 10 minutes.
(7) Detect the assay plate (Ex = 320, Em1 =665 and Em2 620) in a ViewLux plate reader.
For `N#Cc1c(-c2ccccc2)nc(SCC(=O)Nc2ccccc2)[nH]c1=O`, the Potency was inconclusive: 11.2 µM [inhibitor, partial curve]. With `CCCCC1CCC(c2nc(-c3cccnc3)no2)CC1` (configuration not stated) the “activity, negative = IMPase inhibition” value was inactive: -0.136% [at 38.3 µM]. With `COc1cc(OC)c(C2C3=C(CCCC3=O)Nc3nc4ccccc4n32)cc1OC` (configuration not stated) the Potency was inconclusive: 28.2 µM [inhibitor, single point]. In the case of `CN(CCc1ccc(Cl)c(Cl)c1)CCN1CCCC1`, the Potency is reported as inconclusive: 28.2 µM [inhibitor, single point]. For `COc1ccc(OC)c(C2C(C(C)=O)=C(O)C(=O)N2c2ccc(F)cc2)c1` (configuration not stated), the Potency was inconclusive: 12.6 µM [inhibitor, partial curve]. In the case of `Cc1cccc(NC(=S)N/C(=N/S(=O)(=O)c2ccccc2)c2ccccc2)c1`, the “activity, negative = IMPase inhibition” value is reported as inactive: 29.7% [at 38.3 µM]. For `Cc1cc2cc3c(cc2nc1SCC(=O)Nc1ccccc1)CCC3`, the Potency was inconclusive: 11.2 µM [inhibitor, single point]. In the case of `CCOc1ccccc1N1C(=O)CC(Sc2n[nH]c(-c3ccccc3)n2)C1=O` (configuration not stated), the “activity, negative = IMPase inhibition” value is reported as inactive: 9.85%. In the case of `CC(=O)NCCn1c(SCC(=O)c2ccc(Cl)cc2)nc2ccccc2c1=O`, the Potency is reported as inconclusive: 14.1 µM [inhibitor, partial curve]. With `C#CC(C)OC(=O)C(C)NC(=O)c1ccccc1` (configuration not stated) the “activity, negative = IMPase inhibition” value was inactive: -4.63%. For `O=C(NP(=O)(N1CCCC1)N1CCCC1)C1=C(N2CCOCC2)/C(=C/c2cccc([N+](=O)[O-])c2)CC1`, the “activity, negative = IMPase inhibition” value was inactive: 2.97%. With `CC(=O)N[C@H](CC(C)C)C(=O)O` the “activity, negative = IMPase inhibition” value was inactive: 23.6%. For `COc1ccc(CNC(=O)CCCn2nc([N+](=O)[O-])cc2C)cc1`, the Potency was inconclusive: 2.82 µM [inhibitor, partial curve]. With `CC(=O)N1CCN(c2ccc(NCc3cccs3)cc2)CC1` the “activity, negative = IMPase inhibition” value was inactive: 26.6% [at 38.3 µM]. In the case of `N#CC1=C2SCN(c3ccccc3)CN2C(=O)CC1c1cccs1` (configuration not stated), the Potency is reported as active: 28.2 µM. In the case of `COc1ccc(-c2cc(C(F)(F)F)nc(SCCC(=O)Nc3cc(C)on3)n2)cc1`, the Potency is reported as inconclusive: 28.2 µM [inhibitor, single point]. With `C=CCSC1=N/C(=C\c2cc(OC)c3c(c2)OCO3)C(=O)S1` the “activity, negative = IMPase inhibition” value was inactive: 25.1% [at 38.3 µM]. For `CC(C)[C@H](NC(=O)c1ccccc1Cl)C(=O)OCc1cc(=O)n2cc(Br)ccc2n1`, the Potency was active: 11.2 µM. With `Cn1c(=NC(=O)c2ccco2)sc2cccc(F)c21` the Potency was inconclusive: 14.1 µM [inhibitor, single point]. For `Cc1ccc(NC(=O)CCC(=O)OCC(=O)c2ccc(Oc3ccc([N+](=O)[O-])cc3)cc2)c(C)c1`, the “activity, negative = IMPase inhibition” value was inactive: 9.83% [at 38.3 µM]. In the case of `O=C(CC(c1ccccc1)c1ccccc1)NCC1CCCO1` (configuration not stated), the “activity, negative = IMPase inhibition” value is reported as inactive: 1.79% [at 38.3 µM]. For `COc1cc2c(cc1NC(=O)CN1CCN(S(=O)(=O)c3ccc(C)cc3)CC1)oc1ccccc12`, the Potency was inconclusive: 28.2 µM [inhibitor, single point]. In the case of `CCCCN(CCCC)CC(O)COc1ccccc1C(=O)Nc1ccccc1` (configuration not stated), the “activity, negative = IMPase inhibition” value is reported as inactive: 11.8%. For `C=CCN=C1SCC(=O)N1S(=O)(=O)c1ccccc1`, the Potency was inconclusive: 0.501 µM [inhibitor, full curve]. In the case of `CN1CCN(c2ncc3nc(-c4cccs4)c(=O)n(Cc4ccc(F)cc4)c3n2)CC1`, the Potency is reported as inconclusive: 2.24 µM [inhibitor, full curve, poor fit]. For `Cc1onc(-c2ccccc2Cl)c1C(=O)Nc1nnc(-c2ccc(Cl)cc2Cl)s1`, the Potency was inconclusive: 10 µM [inhibitor, single point]. In the case of `COc1cccc(Nc2ncc3nc(CCc4ccccc4)c(=O)n(Cc4cccs4)c3n2)c1`, the Potency is reported as inconclusive: 12.6 µM [inhibitor, single point]. In the case of `N#Cc1c(N)nc(SCC(=O)NCCc2ccccc2)c(C#N)c1-c1cccs1`, the Potency is reported as inconclusive: 28.2 µM [inhibitor, single point]. In the case of `O=C(c1ccc2c(c1)[nH]c(=S)n1c3ccccc3nc21)N1CCN(c2ncccn2)CC1`, the Potency is reported as active: 7.08 µM. In the case of `COc1cccc(-c2noc(C3CCCN(C(=O)Cc4ccccc4)C3)n2)c1` (configuration not stated), the “activity, negative = IMPase inhibition” value is reported as inactive: 21.3% [at 38.3 µM]. For `CN(C)Cc1ccccc1-c1cc(N(C)Cc2ccco2)ncn1`, the “activity, negative = IMPase inhibition” value was inactive: -1.35%. For `COc1ccc(NC(=O)CNC(=O)c2cccs2)cc1Cl`, the “activity, negative = IMPase inhibition” value was inactive: -1.01%. In the case of `C=CCNC(=O)C(=O)N/N=C/c1cccc(Br)c1`, the “activity, negative = IMPase inhibition” value is reported as inactive: -0.242%. In the case of `C=CCN1C(=O)/C(=C2/Sc3ccc(OC)cc3N2C)SC1=Nc1ccccc1`, the Potency is reported as inconclusive: 8.91 µM [inhibitor, partial curve]. In the case of `Cc1c(C)n(C)c2ccc(C(=O)NCc3cccs3)cc12`, the “activity, negative = IMPase inhibition” value is reported as inactive: 2.06%. For `O=C(Cn1cnc2sc(-c3ccccc3)cc2c1=O)NCCc1ccccc1`, the Potency was active: 28.2 µM. In the case of `Cc1cccc(Cn2c(CN3CCN(Cc4ccccc4)CC3)nc3c2c(=O)[nH]c(=O)n3C)c1`, the “activity, negative = IMPase inhibition” value is reported as inactive: 20.4% [at 38.3 µM].
